The RNAGym collection of RNA variant scans (doi:10.1073/pnas.2313332121)
Variants at the background level are over-represented here.

B1: TPR 5TU (parent)
chain: GGAUCUUCUCGAUCUAACAAAAAAGACAAAUCUGCCACAAAGCUUGAGAGCAUCUUCGGAUGCAGAGGCGGCAGCCUUCGGUGGCGCGAUAGCGCCAACGUUCUCAACUAUGACACGCAAAACGCGUGCUCCGUUGAAUGGAGUUUAUCAUG

Variants of: B1
Test: polymerase ribozyme fitness, log enrichment relative to wild type (log ratio); higher = more active; in vitro selection for triplet polymerase activity
How it was run: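 Mutant libraries for each subunit of a heterodimeric triplet polymerase ribozyme were made by PCR and then transcribed. Each library underwent one round of in vitro selection in triplicate: annealing with a biotinylated primer, the partner subunit and triplets, frozen incubation at −7 °C, gel excision of extended constructs, streptavidin-bead capture and RT-PCR. Input and output libraries were Illumina-sequenced, and only genotypes with ≥10 input reads and ≥1 read per output were kept. Fitness is the logarithm, base 2, of genotype enrichment over wild-type enrichment, computed from inverse-variance-weighted replicate averages.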

Point of comparison: GGAUCUUCUCGAUCUAACAAAAAAGACAAAUCUGCCACAAAGCUUGAGAGCCUCUUCGGAUGCAGAGGCGGCAGCCUUCGGUGGCGCAAUAGCGUCAAUGUUCUCAACUUUGACACGCAAAACGCGUGCUCCGUUGAAUGGAGUUUAUCAUG [A52C G88A C95U C99U A110U], “polymerase ribozyme fitness (log ratio)” value -4.07. Against it:
- GGAUCUUCUCGAUCUAACAAAAAAGACAAAUCUGCCACAAAGCUUGAGAGCCACUUCGGAUGCAGAGGCGGCAGCCUUCGGUGGCGCGAUAGCGCCAACGUUCUCAACUAUGACACGCAAAACGCGUGCUCCGUUGAAUGGAGUUUAGCAUG [A52C U53A U148G] — lower, ≤ -4.2
- GGAUCUUCUCGAUCUAACAAAAAAGACAAAUCUGCCACAAAGCUUGAGAGCCUCUUCGGAUGCAGAGGCGGCAGCCUUCGGUGGCGCGAUAGCGCCAACGUUCUCAACUAUGACACGCAAAACGCGUGCUCCGUUGAAUGGAGUUUAUCAUU [A52C G152U] — higher, -3.45
- GGAUCUUCUCGAUCUAACAAAAAAGACAAAUCUGCCACAAAGCUUGAGAGCCUCUUCGGAUGCAGAGGCGGCAGCCUUCGGUGCCGUGAUAGCGCAAACAGUCUCAACUAUGACACGCAAAACGCGUGCUCCGUUGAAUGGAGUUUAUCAUG [A52C G84C C87U C96A G100A U101G] — lower, ≤ -4.2
- GGAUCUUCUCGAUCUAACAAAAAAGACAAAUCUGCCACAAAGCUUGAGAGCCUCAUCGGAUGCAGAGGCGGCAUCCUUCGGUGGCGCUAUAUCGCCAACGUUCUGAGCUAUGACACGCAAAACGCGUGCUCCGUUGAAUGGAGUUUAUCAUG [A52C U55A G74U G88U G92U C105G A107G] — lower, ≤ -4.2
- GGAUCUUCUCGAUCUAACAAAAAAGACAAAUCUGCCACAAAGCUUGAGAGCCUCAACGGAUGUCGAGGCGGCAGCCUUCGGUGGUGCGAUAGCGCCAGCGUUCUCAACUAUGACACGCAAAACGCGUGCUCCGUUGAAUGGAGUUUAUCAUG [A52C U55A U56A C63U A64C C85U A98G] — lower, ≤ -4.2
- GGAUCUUCUCGAUCUAACAAAAAAGACAAAUCUGCCACAAAGCUUGAGAGCCACGUCGGAUGCAGAGGCGGCAGCCUUCGGUGGCGCGAAAGCGCCAAUGUUCUCAACUAUGACACGCAAAACGCGUGCUCCGUUGAAUGGAGUUUAUCAUG [A52C U53A U55G U90A C99U] — lower, ≤ -4.2
- GGAUCUUCUCGAUCUAACAAAAAAGACAAAUCUGCCACAAAGCUUGAGAGCCUCUUCGGAUGCAGAGGCGGCAGCCUUCGGUGGCGCGAUAGCCCCAACGUUCUCAACUAUGACACGCAAAACGCGUGCUCCGUUGAACAGAGUUUAACUUG [A52C G94C U139C G140A U148A A150U] — lower, ≤ -4.2
- GGAUCUUCUCGAUCUAACAAAAAAGACAAAUCUGCCACAAAGCUUGAGAGCCGCUUCGGAUGCAGAGGCGGUAGCCUUCGGUAGCGCGAUAGCGCCAACGUUCUCAACUAUGACACGCAAAACACGUGCUCCGUUGAAUGGAGUUUAUCAUG [A52C U53G C72U G83A G124A] — lower, ≤ -4.2
- GGAUCUUCUCGAUCUAACAAAAAAGACAAAUCUGCCACAAAGCUUGAGAGCCUCGUCGGAUGCAGAGGCGGCAGCCUUCGGUGGCGCGAUAGCGCCAACGUUCUCAACUAUGACACGCAAAACGCGUGCUCCGUUGAAUGGAGUUUAUCAUG [A52C U55G] — higher, -3.84
- GGAUCUUCUCGAUCUAACAAAAAAGACAAAUCUGCCACAAAGCUUGAGAGCCUCUUCGGAUGCAGAGGCGGCAGCCUUCGGUGGCGCAAUAGCGCCAACGUUCUCAACUAUGACACGCAAAACGCGUGCUCCGUUGAAUGGAGUUUAUCAUG [A52C G88A] — higher, -3.57
- GGAUCUUCUCGAUCUAACAAAAAAGACAAAUCUGCCACAAAGCUUGAGAGCCACUUAUGAUGCAGAGGCGGCAGCCUUCGGUUGCGCGAUAGCGCCAACGUUCUCAACUAUGACACGUAAAACGCGUGCUCCGUUGAAUGGAGUUUAUCAGG [A52C U53A C57A G58U G83U C118U U151G] — lower, ≤ -4.2
- GGAUCUUCUCGAUCUAACAAAAAAGACAAAUCUGCCACAAAGCUUGAGAGCCUCUUCGGAUGCAGAGGCGGCAGCCUUCGGUGGCGCUAUAGCGCCAACGGUCUUAUCUAUGACACGAAAAACGCGUGCUCCGUUGAAUGGAUUUUAUCAUG [A52C G88U U101G C105U A107U C118A G143U] — lower, ≤ -4.2
- GGAUCUUCUCGAUCUAACAAAAAAGACAAAUCUGCCACAAAGCUUGAGAGCCUCAUCGGAUGCAGAGGCGGCAGCCUUCGGUGGCGCGACAGCGCCAACGUGCUCAACUGUGACACGCAAAACGCGUGCUCCGUUGAAUGGUGUUUAUCAUG [A52C U55A U90C U102G A110G A142U] — lower, ≤ -4.2
- GGAUCUUCUCGAUCUAACAAAAAAGACAAAUCUGCCACAAAGCUUGAGAGCCUCCUCGGAUGCAGAGGCGGCAGCCUUCGGUAGCGCGAUAGCGCCAACGUUCUCAACUAUGACACGCAAAACGCGUGCUCCGUUGAAUGGAGUUUAUCAAA [A52C U55C G83A U151A G152A] — lower, ≤ -4.2
- GGAUCUUCUCGAUCUAACAAAAAAGACAAAUCUGCCACAAAGCUUGAGAGCCUCUACGGAUGCAGAGGCGGCAGCUUUCGGCGGCGCGAUAGCGCCAACGUUCUCAGCUAUGACACGCAAUACGCGUGCUCCGUUGAAUGGAGUUUAUCAUG [A52C U56A C76U U82C A107G A121U] — lower, ≤ -4.2
- GGAUCUUCUCGAUCUAACAAAAAAGACAAAUCUGCCACAAAGCUUGAGAGCCUCAUCGGAUGCAGCGGCGGCAGCCUUGGGUGGCGCGAUAGCGCCAACGUUCUCAACUAUGACACGCAAAACGCGUGCUCCUUUGGAUGGAGUUUAUCAUG [A52C U55A A66C C79G G133U A137G] — lower, ≤ -4.2
- GGAUCUUCUCGAUCUAACAAAAAAGACAAAUCUGCCACAAAGCUUGAGAGCCACUUCGGAUGCAGAGGCGGCAGCCUUCGGUGGCGCCAUAGCGUCAACGUUCUCAACUAUGACACGCAAAACGCGUGCUCCGUUGAAUGGAGUCUAUCAUG [A52C U53A G88C C95U U145C] — lower, ≤ -4.2
- GGAUCUUCUCGAUCUAACAAAAAAGACAAAUCUGCCACAAAGCUUGAGAGCCACUUCGGAUGGAAAGGCGGCAGCCUUCGGUGGUGCGAUAGCGGCAACGUCCUCAACUAUGACACUCAAAACGCGUGCUCCGUUGAAUGGAGUUUAUCAUG [A52C U53A C63G G65A C85U C95G U102C G117U] — lower, ≤ -4.2
